Experimental findings from article PMC3291536 are described below.

Amino acid sequences for entries named in this document (tags omitted).
UniProt Q13127: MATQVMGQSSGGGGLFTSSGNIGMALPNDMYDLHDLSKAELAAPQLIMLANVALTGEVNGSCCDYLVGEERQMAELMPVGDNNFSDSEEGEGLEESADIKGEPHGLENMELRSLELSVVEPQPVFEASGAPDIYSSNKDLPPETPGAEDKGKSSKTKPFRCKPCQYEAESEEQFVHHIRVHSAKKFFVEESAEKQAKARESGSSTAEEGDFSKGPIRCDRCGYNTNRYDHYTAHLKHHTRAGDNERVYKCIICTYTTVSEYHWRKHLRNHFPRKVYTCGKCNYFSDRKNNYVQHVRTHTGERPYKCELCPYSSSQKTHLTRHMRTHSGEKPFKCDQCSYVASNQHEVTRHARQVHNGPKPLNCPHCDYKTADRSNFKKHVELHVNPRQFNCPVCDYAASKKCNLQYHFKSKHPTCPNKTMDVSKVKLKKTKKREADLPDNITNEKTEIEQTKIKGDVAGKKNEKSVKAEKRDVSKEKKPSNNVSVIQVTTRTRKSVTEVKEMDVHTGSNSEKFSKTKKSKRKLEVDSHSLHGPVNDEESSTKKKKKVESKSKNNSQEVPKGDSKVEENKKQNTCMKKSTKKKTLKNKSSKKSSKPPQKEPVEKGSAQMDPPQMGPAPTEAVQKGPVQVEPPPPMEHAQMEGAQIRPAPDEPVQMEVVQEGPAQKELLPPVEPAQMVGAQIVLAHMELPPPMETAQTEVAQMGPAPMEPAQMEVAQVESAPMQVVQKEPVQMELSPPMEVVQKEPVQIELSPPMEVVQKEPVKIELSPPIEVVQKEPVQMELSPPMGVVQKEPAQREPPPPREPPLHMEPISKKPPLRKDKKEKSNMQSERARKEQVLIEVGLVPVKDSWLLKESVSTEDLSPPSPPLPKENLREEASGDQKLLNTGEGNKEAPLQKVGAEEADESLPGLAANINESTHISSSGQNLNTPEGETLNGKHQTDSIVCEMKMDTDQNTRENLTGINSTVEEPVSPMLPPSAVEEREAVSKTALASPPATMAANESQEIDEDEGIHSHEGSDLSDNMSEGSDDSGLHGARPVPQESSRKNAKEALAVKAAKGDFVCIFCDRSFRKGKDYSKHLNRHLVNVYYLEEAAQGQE
UniProt P35226: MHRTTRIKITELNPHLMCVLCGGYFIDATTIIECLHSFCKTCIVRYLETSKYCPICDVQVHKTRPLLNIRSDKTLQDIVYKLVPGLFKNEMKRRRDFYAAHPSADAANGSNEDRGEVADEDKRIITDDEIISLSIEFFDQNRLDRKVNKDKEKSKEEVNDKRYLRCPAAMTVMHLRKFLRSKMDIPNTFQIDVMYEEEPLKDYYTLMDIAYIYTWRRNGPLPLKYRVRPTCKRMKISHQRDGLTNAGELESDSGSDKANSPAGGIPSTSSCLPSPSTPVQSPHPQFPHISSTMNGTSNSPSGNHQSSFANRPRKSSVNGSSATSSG
UniProt Q9BSM1: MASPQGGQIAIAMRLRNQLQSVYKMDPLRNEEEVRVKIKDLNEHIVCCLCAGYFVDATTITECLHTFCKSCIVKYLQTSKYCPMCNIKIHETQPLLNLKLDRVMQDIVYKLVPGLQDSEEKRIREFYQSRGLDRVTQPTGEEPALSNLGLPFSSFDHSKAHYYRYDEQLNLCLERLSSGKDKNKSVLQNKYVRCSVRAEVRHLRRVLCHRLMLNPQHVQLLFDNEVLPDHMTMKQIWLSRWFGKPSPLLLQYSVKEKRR
UniProt O75461: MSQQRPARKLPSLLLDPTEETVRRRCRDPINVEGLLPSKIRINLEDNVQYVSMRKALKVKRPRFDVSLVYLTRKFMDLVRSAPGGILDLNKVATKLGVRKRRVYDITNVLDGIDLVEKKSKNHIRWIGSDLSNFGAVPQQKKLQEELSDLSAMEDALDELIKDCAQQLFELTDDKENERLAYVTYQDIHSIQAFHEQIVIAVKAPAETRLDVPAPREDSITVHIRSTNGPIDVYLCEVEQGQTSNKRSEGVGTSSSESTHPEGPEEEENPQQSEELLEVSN
UniProt Q99496: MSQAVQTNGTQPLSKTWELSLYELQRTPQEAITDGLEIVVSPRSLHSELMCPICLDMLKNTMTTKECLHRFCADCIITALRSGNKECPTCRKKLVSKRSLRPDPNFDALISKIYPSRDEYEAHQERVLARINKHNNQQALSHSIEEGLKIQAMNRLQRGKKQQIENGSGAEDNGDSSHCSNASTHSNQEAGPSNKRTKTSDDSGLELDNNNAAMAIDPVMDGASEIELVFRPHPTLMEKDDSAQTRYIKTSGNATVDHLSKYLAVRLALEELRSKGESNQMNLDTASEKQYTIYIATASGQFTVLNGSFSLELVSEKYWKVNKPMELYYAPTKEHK
UniProt Q6W2J9: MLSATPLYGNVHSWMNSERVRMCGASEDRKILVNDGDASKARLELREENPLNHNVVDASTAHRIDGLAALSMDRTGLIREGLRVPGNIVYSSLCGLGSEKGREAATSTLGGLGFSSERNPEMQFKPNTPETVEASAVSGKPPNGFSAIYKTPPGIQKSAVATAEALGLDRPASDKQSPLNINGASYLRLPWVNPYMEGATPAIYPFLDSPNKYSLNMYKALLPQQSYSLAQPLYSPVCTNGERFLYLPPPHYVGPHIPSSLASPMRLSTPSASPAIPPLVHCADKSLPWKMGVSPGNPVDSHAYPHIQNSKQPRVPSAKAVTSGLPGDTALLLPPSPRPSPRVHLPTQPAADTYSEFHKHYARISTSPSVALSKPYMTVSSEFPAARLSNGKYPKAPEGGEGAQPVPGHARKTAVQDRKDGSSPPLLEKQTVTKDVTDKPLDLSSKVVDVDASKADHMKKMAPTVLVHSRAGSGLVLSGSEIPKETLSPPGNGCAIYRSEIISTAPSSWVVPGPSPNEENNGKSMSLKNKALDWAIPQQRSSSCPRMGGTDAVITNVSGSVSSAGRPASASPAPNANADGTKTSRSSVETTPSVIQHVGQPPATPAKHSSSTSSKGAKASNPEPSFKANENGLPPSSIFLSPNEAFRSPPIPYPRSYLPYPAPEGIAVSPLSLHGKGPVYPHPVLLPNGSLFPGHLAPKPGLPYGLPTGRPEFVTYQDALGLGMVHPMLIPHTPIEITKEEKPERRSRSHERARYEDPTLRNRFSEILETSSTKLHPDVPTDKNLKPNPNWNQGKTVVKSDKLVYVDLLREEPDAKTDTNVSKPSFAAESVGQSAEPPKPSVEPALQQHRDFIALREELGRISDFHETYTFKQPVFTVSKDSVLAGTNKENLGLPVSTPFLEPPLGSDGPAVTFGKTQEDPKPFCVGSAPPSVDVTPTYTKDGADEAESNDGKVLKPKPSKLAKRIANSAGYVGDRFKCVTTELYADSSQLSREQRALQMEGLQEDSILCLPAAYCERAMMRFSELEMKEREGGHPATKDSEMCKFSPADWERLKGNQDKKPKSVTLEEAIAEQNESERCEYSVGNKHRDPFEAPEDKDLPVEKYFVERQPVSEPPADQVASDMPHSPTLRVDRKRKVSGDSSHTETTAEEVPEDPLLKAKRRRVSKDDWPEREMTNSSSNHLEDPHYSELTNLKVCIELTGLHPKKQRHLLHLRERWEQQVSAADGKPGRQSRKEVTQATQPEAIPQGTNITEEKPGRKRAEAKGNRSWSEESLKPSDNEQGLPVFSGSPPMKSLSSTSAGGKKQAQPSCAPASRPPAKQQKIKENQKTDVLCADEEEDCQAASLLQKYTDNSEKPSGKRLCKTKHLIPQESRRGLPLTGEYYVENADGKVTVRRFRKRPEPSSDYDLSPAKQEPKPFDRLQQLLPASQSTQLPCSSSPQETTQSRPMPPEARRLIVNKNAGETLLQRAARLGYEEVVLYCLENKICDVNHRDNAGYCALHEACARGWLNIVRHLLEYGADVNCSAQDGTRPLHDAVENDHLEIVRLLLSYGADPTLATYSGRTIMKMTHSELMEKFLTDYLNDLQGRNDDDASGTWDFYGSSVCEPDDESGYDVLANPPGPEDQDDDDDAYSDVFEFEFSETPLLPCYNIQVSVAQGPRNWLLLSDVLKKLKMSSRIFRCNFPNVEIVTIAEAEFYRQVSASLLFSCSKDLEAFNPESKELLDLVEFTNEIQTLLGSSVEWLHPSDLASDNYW
UniProt Q13185: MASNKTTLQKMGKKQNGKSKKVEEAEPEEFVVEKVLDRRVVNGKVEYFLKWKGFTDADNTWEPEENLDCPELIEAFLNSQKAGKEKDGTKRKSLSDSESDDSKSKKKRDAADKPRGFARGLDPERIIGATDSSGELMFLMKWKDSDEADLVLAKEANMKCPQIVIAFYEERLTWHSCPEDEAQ
UniProt Q8VIG1: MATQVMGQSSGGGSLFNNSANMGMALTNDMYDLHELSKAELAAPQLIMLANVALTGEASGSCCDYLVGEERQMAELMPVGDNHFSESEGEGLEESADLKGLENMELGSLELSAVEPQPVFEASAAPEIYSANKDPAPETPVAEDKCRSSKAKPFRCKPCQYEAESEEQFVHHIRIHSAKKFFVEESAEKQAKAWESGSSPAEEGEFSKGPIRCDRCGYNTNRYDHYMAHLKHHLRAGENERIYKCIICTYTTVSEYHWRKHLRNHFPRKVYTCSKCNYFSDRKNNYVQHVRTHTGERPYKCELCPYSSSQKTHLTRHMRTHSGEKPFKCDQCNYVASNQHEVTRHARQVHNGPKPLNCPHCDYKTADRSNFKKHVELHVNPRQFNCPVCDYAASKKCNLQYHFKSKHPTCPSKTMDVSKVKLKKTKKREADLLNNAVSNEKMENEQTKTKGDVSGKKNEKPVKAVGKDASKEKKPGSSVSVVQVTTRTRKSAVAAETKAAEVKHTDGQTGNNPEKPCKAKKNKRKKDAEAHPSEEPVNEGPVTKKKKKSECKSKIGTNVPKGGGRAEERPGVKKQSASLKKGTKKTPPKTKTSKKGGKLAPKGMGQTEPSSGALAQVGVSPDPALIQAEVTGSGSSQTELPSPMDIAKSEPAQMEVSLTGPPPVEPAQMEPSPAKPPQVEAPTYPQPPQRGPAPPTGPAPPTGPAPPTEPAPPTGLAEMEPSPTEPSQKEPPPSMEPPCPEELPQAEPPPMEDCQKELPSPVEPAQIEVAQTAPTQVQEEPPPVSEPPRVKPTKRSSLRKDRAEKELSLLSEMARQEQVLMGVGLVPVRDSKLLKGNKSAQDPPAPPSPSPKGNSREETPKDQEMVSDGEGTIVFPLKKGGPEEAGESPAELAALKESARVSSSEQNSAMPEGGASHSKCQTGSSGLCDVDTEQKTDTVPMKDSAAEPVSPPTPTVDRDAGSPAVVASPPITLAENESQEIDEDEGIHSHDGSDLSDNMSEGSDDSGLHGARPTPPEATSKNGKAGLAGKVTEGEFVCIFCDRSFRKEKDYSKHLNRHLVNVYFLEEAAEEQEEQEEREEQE
UniProt Q80U70: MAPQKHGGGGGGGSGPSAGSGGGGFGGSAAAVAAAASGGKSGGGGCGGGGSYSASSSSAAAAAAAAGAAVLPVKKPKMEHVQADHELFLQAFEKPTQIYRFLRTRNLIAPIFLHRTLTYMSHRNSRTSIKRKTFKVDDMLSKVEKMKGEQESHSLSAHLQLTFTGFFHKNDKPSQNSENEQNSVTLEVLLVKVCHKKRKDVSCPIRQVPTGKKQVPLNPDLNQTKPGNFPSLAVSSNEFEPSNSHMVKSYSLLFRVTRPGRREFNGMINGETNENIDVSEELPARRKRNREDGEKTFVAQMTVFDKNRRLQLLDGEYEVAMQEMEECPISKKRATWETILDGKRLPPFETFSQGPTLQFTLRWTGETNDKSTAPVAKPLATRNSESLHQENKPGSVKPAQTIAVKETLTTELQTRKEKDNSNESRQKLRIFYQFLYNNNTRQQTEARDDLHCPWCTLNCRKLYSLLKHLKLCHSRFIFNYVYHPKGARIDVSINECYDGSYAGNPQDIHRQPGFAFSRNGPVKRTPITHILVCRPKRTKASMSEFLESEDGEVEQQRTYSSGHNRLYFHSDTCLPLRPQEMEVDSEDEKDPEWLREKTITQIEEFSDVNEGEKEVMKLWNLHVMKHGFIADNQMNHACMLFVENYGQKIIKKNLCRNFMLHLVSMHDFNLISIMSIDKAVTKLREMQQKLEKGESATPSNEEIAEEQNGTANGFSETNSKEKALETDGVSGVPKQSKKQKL
UniProt Q9CQJ4: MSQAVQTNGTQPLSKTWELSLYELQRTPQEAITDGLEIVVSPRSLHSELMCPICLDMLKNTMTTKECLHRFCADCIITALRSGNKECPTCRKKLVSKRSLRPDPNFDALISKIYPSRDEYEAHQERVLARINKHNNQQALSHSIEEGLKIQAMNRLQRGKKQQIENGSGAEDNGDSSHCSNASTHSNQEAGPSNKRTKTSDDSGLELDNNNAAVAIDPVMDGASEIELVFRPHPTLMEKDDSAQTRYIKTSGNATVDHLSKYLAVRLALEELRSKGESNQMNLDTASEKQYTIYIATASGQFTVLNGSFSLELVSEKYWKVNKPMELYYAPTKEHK

These are yes or no findings as the source states them, for the method shown. In cells and extracts the contact can be indirect. Some binding calls cover weakened binding; strength is not graded here.

The target in one experiment is REST (Neuron-Restrictive Silencing Factor) (human (endogenous in NT2-D1 and HEK293)) (UniProt Q13127). In words: co-IP; anti-REST or control IgG cross-linked to protein A-Sepharose; pooled Superose 6 fractions of NT2-D1 nuclear extract (pool 1: F7–9; pool 2: F11–13; pool 3: F21–22); Western blotting.
Regarding BMI1 (from UniProt P35226 1-326), the binding entry is “binds”.

Regarding NSPC1 (from UniProt Q9BSM1 1-259), the binding result is on record as “binds”.

In the case of E2F6 (from UniProt O75461 1-281), the binding result is “no binding”.

Take RNF2 (from UniProt Q99496 1-336): the binding entry was “binds”.

For SUZ12 (from UniProt Q15022 1-739), the binding result is listed as “binds”.

For the substance BCOR (from UniProt Q6W2J9 1-1755), the binding entry is recorded as “no binding”.

HP1γ (from UniProt Q13185 1-183): the binding entry is “no binding”.

As to CBX7 (from UniProt O95931 1-251), the binding result was “binds”.

In the next experiment the target is Flag-Ha-REST (UniProt Q13127). In words: co-IP; anti-Flag IP from lysates of HEK293 cells expressing Flag-Ha-REST alone or with GAL4-RNF2 or with HA-EED, EZH2 and SUZ12; immunoprecipitates incubated with or without RNase or ethidium bromide; Western blotting. Background: In western blotting, separated proteins are transferred to a membrane and probed.
On to HA-EED (from UniProt O75530 1-441), for which the binding entry is listed as “binds”.

As for GAL4-RNF2 (from UniProt Q99496 1-336), the binding result is “binds”.

In the case of “SUZ12 (expressed in HEK293 with HA-EED and EZH2) (from UniProt Q15022 1-739)”, the binding entry is listed as “binds”.

A further experiment addresses Rest (mouse) (mouse (endogenous in mES cells)) (UniProt Q8VIG1). In words: co-IP; anti-Rest or control IgG on pooled size-exclusion fractions (1: F8–10; 2: F11–13; 3: F22) of nuclear extracts from Wt, Eed−/− or Rnf2−/− mES cells; Western blotting. A general note: In gel filtration, larger molecules generally elute earlier.
With “Suz12 (mouse) (from UniProt Q80U70 1-741)”, the binding entry is listed as “binds”.

As for “Rnf2 (mouse) (from UniProt Q9CQJ4 1-336)”, the binding result is given as “binds”.
